From patent US9527820B1, “Diethylammonium salts of phenyl-substituted thiobarbituric acid as anti-diabetic agents” (KING SAUD UNIVERSITY, priority 2016, dated 2016)

The compounds below were run against α-glucosidase (assay: in vitro α-glucosidase enzyme inhibition activity). Settings: read-out: α-Glucosidase Inhibition (IC50 in μM), ± SEM.
With CCn1c(O)c(C(c2ccccc2)c2c(O)n(CC)c(=S)n(CC)c2=O)c(=O)n(CC)c1=S [Compound 3a, Diethylammonium 5-((1,3-diethyl-6-hydroxy-4-oxo-2-thioxo-1,2,3,4-tetrahydropyrimidin-5-yl)(phenyl)methyl)-1,3-diethyl-6-oxo-2-thioxo-1,2,3,6-tetrahydropyrimidin-4-olate] the IC50 was 415.8 ± 4 µM. Work on CCn1c(O)c(C(c2ccc(C)cc2)c2c(O)n(CC)c(=S)n(CC)c2=O)c(=O)n(CC)c1=S [Compound 3c, Diethylammonium 5-((1,3-diethyl-6-hydroxy-4-oxo-2-thioxo-1,2,3,4-tetrahydropyrimidin-5-yl)(p-tolyl)methyl)-1,3-diethyl-6-oxo-2-thioxo-1,2,3,6-tetrahydropyrimidin-4-olate] yielded an IC50 of 200 ± 8.7 µM. In the case of CCn1c(O)c(C(c2ccc(Br)cc2)c2c(O)n(CC)c(=S)n(CC)c2=O)c(=O)n(CC)c1=S [Compound 3d, Diethylammonium 5-((4-bromophenyl)(1,3-diethyl-6-hydroxy-4-oxo-2-thioxo-1,2,3,4-tetrahydropyrimidin-5-yl)methyl)-1,3-diethyl-6-oxo-2-thioxo-1,2,3,6-tetrahydropyrimidin-4-olate], the IC50 is reported as 26.8 ± 0.17 µM. In the case of CCn1c(O)c(C(c2ccc([N+](=O)[O-])cc2)c2c(O)n(CC)c(=S)n(CC)c2=O)c(=O)n(CC)c1=S [Compound 3g, Diethylammonium 5-((1,3-diethyl-6-hydroxy-4-oxo-2-thioxo-1,2,3,4-tetrahydropyrimidin-5-yl)(4-nitrophenyl)methyl)-1,3-diethyl-6-oxo-2-thioxo-1,2,3,6-tetrahydropyrimidin-4-olate], the IC50 is reported as 219 ± 8.4 µM. CCn1c(O)c(C(c2ccc(OC)cc2)c2c(O)n(CC)c(=S)n(CC)c2=O)c(=O)n(CC)c1=S [Compound 3l, Diethylammonium 5-((1,3-diethyl-6-hydroxy-4-oxo-2-thioxo-1,2,3,4-tetrahydropyrimidin-5-yl)(4-methoxyphenyl)methyl)-1,3-diethyl-6-oxo-2-thioxo-1,2,3,6-tetrahydropyrimidin-4-olate] gave an IC50 of 211 ± 10 µM. “Diethylammonium 5-((1,3-diethyl-6-hydroxy-4-oxo-2-thioxo-1,2,3,4-tetrahydropyrimidin-5-yl)(3-nitrophenyl)methyl)-1,3-diethyl-6-oxo-2-thioxo-1,2,3,6-tetrahydropyrimidin-4-olate [Compound 3h]” was tested, and the IC50 was 42.9 ± 0.57 µM. For “Diethylammonium 5-((1,3-diethyl-6-hydroxy-4-oxo-2-thioxo-1,2,3,4-tetrahydropyrimidin-5-yl)(4-(trifluoromethyl)phenyl)methyl)-1,3-diethyl-6-oxo-2-thioxo-1,2,3,6-tetrahydropyrimidin-4-olate [Compound 3n]”, the IC50 was 164 ± 4.5 µM. Work on “Diethylammonium 5-((1,3-diethyl-6-hydroxy-4-oxo-2-thioxo-1,2,3,4-tetrahydropyrimidin-5-yl)(4-fluorophenyl)methyl)-1,3-diethyl-6-oxo-2-thioxo-1,2,3,6-tetrahydropyrimidin-4-olate [Compound 3m]” yielded an IC50 of 51.7 ± 2.2 µM. In the case of “Diethylammonium 5-((1,3-diethyl-6-hydroxy-4-oxo-2-thioxo-1,2,3,4-tetrahydropyrimidin-5-yl)(m-tolyl)methyl)-1,3-diethyl-6-oxo-2-thioxo-1,2,3,6-tetrahydropyrimidin-4-olate [Compound 3f]”, the IC50 is reported as 309 ± 6.3 µM. For “Diethylammonium 5-((1,3-diethyl-6-hydroxy-4-oxo-2-thioxo-1,2,3,4-tetrahydropyrimidin-5-yl)(thiophen-2-yl)methyl)-1,3-diethyl-6-oxo-2-thioxo-1,2,3,6-tetrahydropyrimidin-4-olate [Compound 3k]”, the IC50 was 102 ± 2 µM. “Diethylammonium 5-((2,6-dichlorophenyl)(1,3-diethyl-6-hydroxy-4-oxo-2-thioxo-1,2,3,4-tetrahydropyrimidin-5-yl)methyl)-1,3-diethyl-6-oxo-2-thioxo-1,2,3,6-tetrahydropyrimidin-4-olate [Compound 3j]” showed an IC50 of 162 ± 6.2 µM.
